viability, T/C and IC50 data for four compounds are collected here from PubChem BioAssay AID1919005 (Molecular Pharmacology Branch, DTP, NCI, 2023).

A number of entries come with more than one value. This list holds those alone. The source may hold further records. Values that stand side by side repeat one measurement across runs, samples, wells, individuals or studies. Counts like (3×) say how often a value occurs here. A date in brackets names the month of the test.

The assay deals with 855422-203-R-J1-PDC complex spheroid growth. Nature of the assay: Anticancer human tumor 855422-203-R-J1-PDC patient-derived bladder carcinoma cell line growth inhibition [AhR]. The note with it: for viability, T/C: stronger effect = lower value. The text has this:
Multicellular complex tumor spheroid response to aryl hydrocarbon receptor antagonists in combination with a variety of drugs and investigational agents in selected tumor cell lines
The current study was undertaken to assess response to aryl hydrocarbon receptor antagonists in combination with standard-of-care drugs and investigational agents in solid tumor complex spheroid models. Complex spheroids include a stromal component modeled by human endothelial cells (HUVEC) and fibroblasts modeled by human mesenchymal stem cells (MSCs). The concentration ranges selected for each drug and investigational agent were based upon clinically achievable concentrations if the clinical Cmax of the agent was known.
Compounds. The drugs and investigational agents: BAY 2416964 (NSC825713), GNF351 (NSC835774), CH-223191 (NSC835775), CPI-455 (NSC825282), aza-TdCyd (NSC777586), decitabine (NSC127716), belinostat (NSC758774), entinostat (NSC756642), pevonedistat (NSC761192), tazemetostat (NSC777109), talazoparib (NSC765396), olaparib (NSC753686), selinexor (NSC780203), nedisertib (M3814, NSC802822), bortezomib (NSC756655), venetoclax (NSC766270), doxorubicin (NSC123127), elimusertib (BAY189344, NSC800525), ceralasertib (AZD6738, NSC777638), TAK-243 (NSC785004), alisertib (NSC759677), etoposide (NSC141540), topotecan (NSC609699), eribulin (NSC707389), gemcitabine (NSC613327), carboplatin (NSC241240), cisplatin (NSC119875), and SN-38 (NSC673596) were obtained from the National Cancer Institute (NCI) Developmental Therapeutics Program Chemical Repository (32). The FDA-approved anticancer drug set is available from the Developmental Therapeutics Program at https://dtp.cancer.gov/organization/dscb/obtaining/available plates.htm. […] The stock solutions were prepared in dimethyl sulfoxide (DMSO, Sigma-Aldrich, St. Louis, MO, cat. D2650), except for the platinum compounds which were prepared in saline (Quality Biological, Gaithersburg, MD, cat. 114-055-101), at 800-fold the tested concentration and stored at -70 degrees C prior to their use. All drugs and investigational agents were tested over a range starting from a high concentration at or near the clinical Cmax and decreasing in half-log increments. If the clinical Cmax for an agent had not been determined, the highest concentration tested was 10 microM (Table 1).
Cell Culture. All cells were maintained in an incubator at 37 degrees C and 5% CO2 with 95% humidity. The PDC lines were cultured according to standard operating procedures established by the NCI PDMR (https://pdmr.cancer.gov). Briefly, all PDCs were thawed and cultured in Matrigel-coated flasks prepared with a working solution of 1X Ham's F-12 nutrient mix, without supplementation (Invitrogen, Waltham, MA, cat. 11765054), 100 U/mL penicillin-streptomycin (Invitrogen, cat. 15140122), and 2.5% Matrigel (Corning Inc., Corning, NY, cat. 354248) for the first three passages. All PDCs were cultured in complete DMEM/F-12 media containing advanced DMEM/F-12 (Invitrogen, cat. 12634028), 4.9% defined fetal bovine serum, heat inactivated (HyClone Laboratories Inc., Logan, UT, cat. SH30070.03HI), 389 ng/mL hydrocortisone (Sigma-Aldrich, cat. H4001), 9.7 ng/mL human EGF recombinant protein (Invitrogen, cat. PHG0313), 23.4 microg/mL adenine (Sigma-Aldrich, cat. A2786), 97.3 U/mL penicillin-streptomycin (Invitrogen, cat. 15140122), 1.9 mM L-glutamine (Invitrogen, cat. 25030081), and 9.7 microM Y-27632 dihydrochloride (Tocris Bioscience, Bristol, United Kingdom, cat. 1254). The PDCs were cultured in complete DMEM/F12 media without 10 microM Y-27632 dihydrochloride for at least two passages prior to the screen. The established cell lines NCI-H1341 and […] were cultured in DMEM/F-12, HEPES (Invitrogen, cat. 11330032), 5% defined fetal bovine serum (HyClone Laboratories Inc., cat. SH30070.03), ITS premix universal culture supplement [insulin (5 microg/mL), transferrin (5 microg/mL), and selenious acid (5 ng/mL)] […]
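Note: spheroids exposed to agents for seven days before readout.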
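Throughout, for viability, T/C: percent of DMSO vehicle control luminescence viability.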

Take `CC(C)CC(NC(=O)C(Cc1ccccc1)NC(=O)c1cnccn1)B(O)O` (stereo unspecified): the viability, T/C (compound alone 0.003 µM) is 0.9% [2022-05] and 46.1%, 130% [2022-06].
`Cc1cncc(-c2nc(NCCc3c[nH]c4ccccc34)c3ncn(C(C)C)c3n2)c1`: the viability, T/C runs as follows: (compound alone 0.316 µM) 90.7, 93.5, 79, 96.4, 81.8, 87.5, 93.3, 95.6, 93, 80.3, 92.2, 106, 96, 84.8, 93.9, 78.9, 82.7, 84.5, 91, 83.8%; (compound alone 3.16 µM) 80.3, 78.3, 83.3 (2×), 85.5, 73, 75.9, 83.7, 87.8, 80.4, 82.9, 82.1, 88.6, 71, 81.3, 70.9, 51.3, 70.4, 77.8, 74.5%; (compound alone 10 µM) 15.6, 9.41, 12.3, 13.6, 7.15, 12.6, 11.2, 15.8, 10.4, 17.4, 35.5, 36.9, 41.2, 26.7, 32.5, 18.7, 24.9, 19.5, 23.3, 24.1, 6%.
As to `COc1cc(Nc2ncc3c(n2)-c2ccc(Cl)cc2C(c2c(F)cccc2OC)=NC3)ccc1C(=O)O`, the IC50 (as a rule, the midpoint of a concentration-inhibition curve) (compound alone) is 943 nM [2022-05] and 938 nM, > 10 µM [2022-06].
In the case of `CC(CO)NC(=O)c1cc(-c2ccc(Cl)cc2)nn(-c2cnn(C)c2)c1=O` (stereo unspecified), the viability, T/C (compound alone 0.316 µM) is 101 (3×), 87.7, 90.5, 92.4, 107, 95.6, 109, 91.6, 99.2 (2×), 99.6, 92.8, 90.6, 111, 95, 95.1, 85.6, 91.3, 89%.
